# Measurements taken from the supplement of paper PMC8728848.
# The list shows a part of the results.
# How the values were obtained:
# Test in all cases: glycan array binding signal (z-score within array); higher = stronger binding
# Settings in all cases: glycan notation: IUPAC condensed, linker removed
# [1] = biological target: Neu5Ac(a2-3)Gal(b1-3)GalNAc
# Outline: (§1)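 Glycan array binding is given as a within-array Z-score, which can be read as non-binding when negative. The arrays, 3228 of them, came from the Consortium for Functional Glycomics database and were retained only where the protein sequence was available. Z-scores were averaged across arrays of the same protein sequence at different concentrations or buffers and across linkers.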
# [2] = biological target: Neu5Ac(a2-3)Gal(b1-3)GalNAc(b1-3)Gal(a1-4)Gal(b1-4)Glc
# Outline: as §1
# [3] = biological target: Neu5Ac(a2-3)Gal(b1-3)GalNAc(b1-4)Gal(b1-4)Glc
# Outline: as §1
# [4] = biological target: Neu5Ac(a2-3)Gal(b1-3)GalNAc(b1-4)[Neu5Ac(a2-3)]Gal(b1-4)Glc
# Outline: as §1
# [5] = biological target: Neu5Ac(a2-3)Gal(b1-3)GalNAc(b1-4)[Neu5Ac(a2-8)Neu5Ac(a2-3)]Gal(b1-4)Glc
# Outline: as §1
# [6] = biological target: Neu5Ac(a2-3)Gal(b1-3)GalNAc6S
# Outline: as §1
# [7] = biological target: Neu5Ac(a2-3)Gal(b1-3)GlcNAc
# Outline: as §1
# [8] = biological target: Neu5Ac(a2-3)Gal(b1-3)GlcNAc(b1-2)Man
# Outline: as §1
# [9] = biological target: Neu5Ac(a2-3)Gal(b1-3)GlcNAc(b1-2)Man(a1-3)[GlcNAc(b1-4)][Neu5Ac(a2-3)Gal(b1-3)GlcNAc(b1-2)Man(a1-6)]Man(b1-4)GlcNAc(b1-4)GlcNAc
# Outline: as §1
# [10] = biological target: Neu5Ac(a2-3)Gal(b1-3)GlcNAc(b1-2)Man(a1-3)[Neu5Ac(a2-3)Gal(b1-3)GlcNAc(b1-2)Man(a1-6)]Man(b1-4)GlcNAc(b1-4)GlcNAc
# Outline: as §1
# [11] = biological target: Neu5Ac(a2-3)Gal(b1-3)GlcNAc(b1-2)[Neu5Ac(a2-3)Gal(b1-3)GlcNAc(b1-4)]Man(a1-6)[Neu5Ac(a2-3)Gal(b1-3)GlcNAc(b1-2)Man(a1-3)]Man(b1-4)GlcNAc(b1-4)GlcNAc
# Outline: as §1
# [12] = biological target: Neu5Ac(a2-3)Gal(b1-3)GlcNAc(b1-3)Gal(b1-3)GlcNAc
# Outline: as §1
# [13] = biological target: Neu5Ac(a2-3)Gal(b1-3)GlcNAc(b1-3)Gal(b1-4)GlcNAc
# Outline: as §1
# [14] = biological target: Neu5Ac(a2-3)Gal(b1-3)GlcNAc(b1-3)GalNAc
# Outline: as §1
# [15] = biological target: Neu5Ac(a2-3)Gal(b1-3)GlcNAc(b1-6)GalNAc
# Outline: as §1
# [16] = biological target: Neu5Ac(a2-3)Gal(b1-3)GlcNAc6S
# Outline: as §1
# [17] = biological target: Neu5Ac(a2-3)Gal(b1-3)[Fuc(a1-4)]GlcNAc
# Outline: as §1
# [18] = biological target: Neu5Ac(a2-3)Gal(b1-3)[Fuc(a1-4)]GlcNAc(b1-3)Gal(b1-3)[Fuc(a1-4)]GlcNAc
# Outline: as §1
# [19] = biological target: Neu5Ac(a2-3)Gal(b1-3)[Fuc(a1-4)]GlcNAc(b1-3)Gal(b1-4)[Fuc(a1-3)]GlcNAc
# Outline: as §1
# [20] = biological target: Neu5Ac(a2-3)Gal(b1-3)[GlcNAc(b1-6)]GalNAc
# Outline: as §1
# [21] = biological target: Neu5Ac(a2-3)Gal(b1-3)[Neu5Ac(a2-6)]GalNAc
# Outline: as §1
# [22] = biological target: Neu5Ac(a2-3)Gal(b1-3)[Neu5Ac(a2-6)]GlcNAc(b1-3)[Fuc(a1-3)[Gal(b1-4)]GlcNAc(b1-6)]Gal(b1-4)Glc
# Outline: as §1
# [23] = biological target: Neu5Ac(a2-3)Gal(b1-3)]Neu5Ac(a2-3)Gal(b1-4)]GlcNAc
# Outline: as §1
# Neu5Ac(a2-3)Gal(b1-4)Glc = biological target: Neu5Ac(a2-3)Gal(b1-4)Glc
# Outline: as §1
# [24] = biological target: Neu5Ac(a2-3)Gal(b1-4)GlcNAc
# Outline: as §1
# [25] = biological target: Neu5Ac(a2-3)Gal(b1-4)GlcNAc(b1-2)Man
# Outline: as §1
# [26] = biological target: Neu5Ac(a2-3)Gal(b1-4)GlcNAc(b1-2)Man(a1-3)[GlcNAc(b1-4)][Neu5Ac(a2-3)Gal(b1-4)GlcNAc(b1-2)Man(a1-6)]Man(b1-4)GlcNAc(b1-4)GlcNAc
# Outline: as §1
# [27] = biological target: Neu5Ac(a2-3)Gal(b1-4)GlcNAc(b1-2)Man(a1-3)[Neu5Ac(a2-3)Gal(b1-4)GlcNAc(b1-2)Man(a1-6)]Man(b1-4)GlcNAc(b1-4)GlcNAc
# Outline: as §1
# [28] = biological target: Neu5Ac(a2-3)Gal(b1-4)GlcNAc(b1-2)Man(a1-3)[Neu5Ac(a2-3)Gal(b1-4)GlcNAc(b1-2)Man(a1-6)]Man(b1-4)GlcNAc(b1-4)[Fuc(a1-6)]GlcNAc
# Outline: as §1
# [29] = biological target: Neu5Ac(a2-3)Gal(b1-4)GlcNAc(b1-2)Man(a1-3)[Neu5Ac(a2-6)Gal(b1-4)GlcNAc(b1-2)Man(a1-6)]Man(b1-4)GlcNAc(b1-4)GlcNAc
# Outline: as §1
# [30] = biological target: Neu5Ac(a2-3)Gal(b1-4)GlcNAc(b1-2)[Neu5Ac(a2-3)Gal(b1-4)GlcNAc(b1-4)]Man(a1-3)[GlcNAc(b1-4)][Neu5Ac(a2-3)Gal(b1-4)GlcNAc(b1-2)[Neu5Ac(a2-3)Gal(b1-4)GlcNAc(b1-6)]Man(a1-6)]Man(b1-4)GlcNAc(b1-4)GlcNAc
# Outline: as §1
# [31] = biological target: Neu5Ac(a2-3)Gal(b1-4)GlcNAc(b1-2)[Neu5Ac(a2-3)Gal(b1-4)GlcNAc(b1-4)]Man(a1-3)[GlcNAc(b1-4)][Neu5Ac(a2-3)Gal(b1-4)GlcNAc(b1-4)Man(a1-6)]Man(b1-4)GlcNAc(b1-4)GlcNAc
# Outline: as §1
# [32] = biological target: Neu5Ac(a2-3)Gal(b1-4)GlcNAc(b1-2)[Neu5Ac(a2-3)Gal(b1-4)GlcNAc(b1-6)]Man(a1-6)[Neu5Ac(a2-3)Gal(b1-4)GlcNAc(b1-2)Man(a1-3)][GlcNAc(b1-4)]Man(b1-4)GlcNAc(b1-4)GlcNAc
# Outline: as §1
# [33] = biological target: Neu5Ac(a2-3)Gal(b1-4)GlcNAc(b1-3)Gal
# Outline: as §1
# [34] = biological target: Neu5Ac(a2-3)Gal(b1-4)GlcNAc(b1-3)Gal(b1-3)GlcNAc
# Outline: as §1
# [35] = biological target: Neu5Ac(a2-3)Gal(b1-4)GlcNAc(b1-3)Gal(b1-4)GlcNAc
# Outline: as §1
# [36] = biological target: Neu5Ac(a2-3)Gal(b1-4)GlcNAc(b1-3)Gal(b1-4)GlcNAc(b1-2)Man(a1-3)[Neu5Ac(a2-3)Gal(b1-4)GlcNAc(b1-3)Gal(b1-4)GlcNAc(b1-2)Man(a1-6)]Man(b1-4)GlcNAc(b1-4)GlcNAc
# Outline: as §1
binder,measurement,setting,value
Tamarinin (protein) CDDSARAGNIVVYWGQGGSDNSEGSLKEACKSGHYNMIVLQQLIVYDDGRDPDLNLGAHCSDCTKLEEQIKYCQNKDIKILLQIGQVVPTQEDVKDVTKNLSEYLLKNFFSGKSGPLGEVYLNGIDIASVPEGNNLKFDELVEALNDSSTERRIYLSASPLCVYPDYYLNKAIQTEKLDFLFVQFFYQNPCIYTEGNPENLFEAMKTWTKNVPESMIFMALPATPNLDGYIPPRVLNKEILPAVSEASNFAGVMIFDRYFDRFRKYSSKIK,glycan array binding signal (z-score),[1],-0.03
same,glycan array binding signal (z-score),[2],-0.286
same,glycan array binding signal (z-score),[3],0.04
same,glycan array binding signal (z-score),[4],1.02
same,glycan array binding signal (z-score),[5],1.37
same,glycan array binding signal (z-score),[6],-0.272
same,glycan array binding signal (z-score),[7],-0.114
same,glycan array binding signal (z-score),[8],-0.361
same,glycan array binding signal (z-score),[9],-0.013
same,glycan array binding signal (z-score),[10],0.161
same,glycan array binding signal (z-score),[11],0.303
same,glycan array binding signal (z-score),[12],-0.373
same,glycan array binding signal (z-score),[13],-0.471
same,glycan array binding signal (z-score),[14],-0.063
same,glycan array binding signal (z-score),[15],-0.359
same,glycan array binding signal (z-score),[16],-0.297
same,glycan array binding signal (z-score),[17],-0.401
same,glycan array binding signal (z-score),[18],1.67
same,glycan array binding signal (z-score),[19],3.05
same,glycan array binding signal (z-score),[20],-0.268
same,glycan array binding signal (z-score),[21],2.07
same,glycan array binding signal (z-score),[22],-0.485
same,glycan array binding signal (z-score),[23],-0.353
same,glycan array binding signal (z-score),Neu5Ac(a2-3)Gal(b1-4)Glc,-0.022
same,glycan array binding signal (z-score),[24],-0.352
same,glycan array binding signal (z-score),[25],1.24
same,glycan array binding signal (z-score),[26],-0.344
same,glycan array binding signal (z-score),[27],-0.31
same,glycan array binding signal (z-score),[28],-0.374
same,glycan array binding signal (z-score),[29],-0.369
same,glycan array binding signal (z-score),[30],-0.293
same,glycan array binding signal (z-score),[31],-0.177
same,glycan array binding signal (z-score),[32],-0.424
same,glycan array binding signal (z-score),[33],-0.373
same,glycan array binding signal (z-score),[34],-0.51
same,glycan array binding signal (z-score),[35],-0.297
same,glycan array binding signal (z-score),[36],-0.342
